# Measurements as given in PubChem BioAssay AID1347428 (National Center for Advancing Translational Sciences (NCATS), 2020).
# In all, about 91,000 compounds went through this assay and about 290 (0.32%) were called active. Inconclusive results, whose numbers are uncertain, are shown with a selection of clear calls. The call rests on the fitted dose curve; in most records, active means well fitted inhibition curve with a large enough effect; inconclusive means small, poorly fitted or top-dose-only effect; inactive means no such curve, though single readings can be large or run the other way. Potencies beside an inconclusive call are fits to weak or partial responses and may not hold up.
# Target: Single-stranded DNA cytosine deaminase (Homo sapiens) (UniProt Q9GZX7)
# Assay: Primary qHTS assay for inhibitors of Activation Induced Cytidine Deaminase (AID): AID signal; further: nearly all actives have a fitted effect of over 25% in size
# Details: AID deamination FRET fluorescence, UDG-coupled, 4 h; series mostly up to 115 µM
# Potency means the concentration at half of the fitted maximal effect; tags describe the fitted curve by direction and shape.
# Sequence of UniProt Q9GZX7 (Q9GZX7 whole entry, looked up): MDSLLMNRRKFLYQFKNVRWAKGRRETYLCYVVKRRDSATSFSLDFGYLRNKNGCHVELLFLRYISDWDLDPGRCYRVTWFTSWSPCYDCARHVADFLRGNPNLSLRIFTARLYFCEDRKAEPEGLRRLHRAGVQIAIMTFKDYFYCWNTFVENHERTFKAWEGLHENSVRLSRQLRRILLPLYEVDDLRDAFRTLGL
row,Compound,Potency
1,CC1(C)Cc2cc(C(=O)NC3CC3)ccc2C1(C)c1ccc(C(=O)NC2CC2)cc1 (centres undefined),inactive
2,CC(C)CNC(=O)CCSc1nc(-c2ccc3c(c2)OCO3)cc(C(F)(F)F)n1,"inconclusive: 2.82 µM [inhibitor, full curve, poor fit]"
3,Brc1c(Br)c(Br)c2n[nH]nc2c1Br,active: 39.8 µM
4,CCOC(=O)c1cnc2ccc(C)cc2c1Nc1ccc(OCc2ccccc2Cl)cc1,"inconclusive: 31.6 µM [inhibitor, partial curve, poor fit]"
5,CC(=O)N1c2ccc(S(=O)(=O)N3CCN(c4ccc(C)cc4C)CC3)cc2CC1C (centres undefined),"inconclusive: 39.8 µM [inhibitor, single point]"
6,CC1CCN(c2oc(-c3cccs3)nc2S(=O)(=O)c2ccc(Cl)cc2)CC1,"inconclusive: 25.1 µM [inhibitor, single point]"
7,Cc1cc2ccccc2n1-c1ccc(C(=O)N2CCCCC2)s1,"inconclusive: 50.1 µM [inhibitor, partial curve, poor fit]"
8,CCOC(=O)c1ccc(N2C(=O)c3n[nH]c(-c4cccs4)c3C2c2ccc(C)cc2)cc1 (centres undefined),"inconclusive: 3.55 µM [inhibitor, full curve]"
9,COc1ccc(C2CC(=O)Nc3nc(N)sc32)cc1OCc1ccccc1Cl (centres undefined),active: 39.8 µM
10,CCOC(=O)N1CCc2c(sc3c2c(=O)n(Cc2ccccc2)c(=O)n3Cc2c(F)cccc2Cl)C1,"inconclusive: 11.2 µM [inhibitor, full curve, poor fit]"
11,COc1cccc(OCc2nc3ccccc3n2CCOc2ccccc2)c1,"inconclusive: 28.2 µM [inhibitor, partial curve]"
12,Cn1c(=O)ccn(CC(=O)Nc2nc(C3CC3)cs2)c1=O,inactive
13,CC(Sc1oc(-c2ccco2)nc1S(=O)(=O)c1ccc(Br)cc1)c1ccccc1 (centres undefined),"inconclusive: 39.8 µM [inhibitor, partial curve, poor fit]"
14,COCCNc1nc(NCc2ccccc2OC)c2cnn(C)c2n1,inactive
15,Cc1ccccc1CSc1nc2nc(C)c(Cc3ccccc3)c(C)n2n1,"inconclusive: 31.6 µM [inhibitor, partial curve, poor fit]"
16,Cn1c(NCc2ccccc2Cl)nc2c1c(=O)n(Cc1ccccc1F)c(=O)n2C,inactive
17,Cc1ccc(S(=O)(=O)c2cn(Cc3ccccc3)c3cc(N4CCCC4)c(F)cc3c2=O)cc1C,"inconclusive: 14.1 µM [inhibitor, full curve]"
18,CCN(C(=O)Cn1ncc2c1-c1cc(C)ccc1OC2)c1cc(Cl)ccc1OC,"inconclusive: 50.1 µM [inhibitor, partial curve, poor fit]"
19,COc1cc(NC(=O)CSc2nc3nc(C)c(Cc4ccc(C)cc4)c(C)n3n2)cc(OC)c1,"inconclusive: 28.2 µM [inhibitor, full curve]"
20,Cl/C(=C/c1ccc(Cl)cc1)c1ncc(-c2ccc(Cl)cc2)o1,inactive
21,Cc1ccc(Cn2nnc(C(=O)Nc3ccc(F)c(F)c3)c2N)cc1,inactive
22,CCOC(=O)N1CCc2c(sc3c2c(=O)n(CCc2ccccc2)c(=O)n3Cc2ccc(F)cc2)C1,"inconclusive: 17.8 µM [inhibitor, single point]"

row,Compound,Potency
1,Cn1c(=O)c2c(nc(CN3CCN(c4ccc(F)cc4)CC3)n2Cc2ccccc2)n(C)c1=O,inactive
2,CCOc1ccc(C2CC(=O)c3c([nH]c(C(=O)OCc4ccccc4)c3C)C2)cc1 (centres undefined),"inconclusive: 22.4 µM [inhibitor, single point]"
3,COc1ccc(CCN2C(=O)c3oc4ccc(F)cc4c(=O)c3C2c2ccc(C(C)(C)C)cc2)cc1 (centres undefined),"inconclusive: 112 µM [inhibitor, partial curve, poor fit]"
4,COc1ccccc1N1CCN(c2ncnc3c2cnn3C)CC1,"inconclusive: 63.1 µM [inhibitor, partial curve, poor fit]"
5,CCOc1ccc(C2=NC(c3cccs3)=Nc3ccc(C(C)C)cc3N2)cc1,"inconclusive: 17.8 µM [inhibitor, full curve, poor fit]"
6,CCOc1ccc(-n2c(C)nc3cc(C(=O)NCCC4=CCCCC4)ccc32)cc1,inactive
7,COc1ccc(-c2nc(Cn3c(SCc4ccc(C)cc4)nc4cccnc43)c(C)o2)cc1OC,"inconclusive: 44.7 µM [inhibitor, partial curve, poor fit]"
8,CCOc1ccc(OCC)c(S(=O)(=O)N2CCN(c3cccc(C)c3C)CC2)c1,"inconclusive: 10 µM [inhibitor, full curve, poor fit]"
9,COc1cc2c(cc1OC)C(COc1ccc(F)cc1)N(C(=O)Cc1ccc(F)cc1)CC2 (centres undefined),"inconclusive: 20 µM [inhibitor, partial curve, poor fit]"
10,O=C(CSc1nc2c([nH]c3ccccc32)c(=O)n1-c1ccccc1)Nc1ccccc1C(F)(F)F,"inconclusive: 39.8 µM [inhibitor, single point]"
11,O=C(CSc1cn(Cc2cccc(F)c2)c2ccccc12)N1CCCCC1,"inconclusive: 79.4 µM [inhibitor, partial curve, poor fit]"
12,CCOc1ccc(N(CC)S(=O)(=O)N2CCCC(C(=O)NCc3ccccc3OCC)C2)cc1 (centres undefined),"inconclusive: 39.8 µM [inhibitor, full curve, poor fit]"
13,CCc1ccc(-c2nc(CN3CCCC(C(=O)NCc4ccccc4Cl)C3)c(C)o2)cc1 (centres undefined),"inconclusive: 39.8 µM [inhibitor, full curve]"
14,O=C(OCC(=O)N1CCC(c2ccccc2)=N1)c1cc2c(s1)CCCC2,inactive
15,CCOc1ccc(CCNc2ncnc3onc(C)c23)cc1OCC,inactive
16,CCOC(=O)c1cnc2c(OC)cccc2c1N1CCN(c2ccccc2F)CC1,"inconclusive: 39.8 µM [inhibitor, single point]"
17,O=S1(=O)CCN(Cc2cccc(Br)c2)c2c(F)nc(N3CCOCC3)c(F)c21,inactive
18,CCC1=Nc2cc(C(=O)NC3CCCC3)ccc2Sc2ccc(Cl)cc21,"inconclusive: 31.6 µM [inhibitor, partial curve, poor fit]"
19,CCC(C)C(=O)N(Cc1ccccn1)C1CC1 (centres undefined),inactive
20,O=C(O)C1CCN(C(=O)Cn2ccc3c(Br)cccc32)CC1,inactive
21,CCN(CC(=O)NCc1cccs1)C(=O)C1CC(=O)N(c2cccc3ccccc23)C1 (centres undefined),inactive
22,NC(=O)COc1cccc(C2CC(=O)Nc3nc(N4CCCCC4)sc32)c1 (centres undefined),active: 28.2 µM

row,Compound,Potency
1,Cc1ccc2nc(N3C(=O)C(O)=C(C(=O)c4ccco4)C3c3ccc(O)cc3)sc2c1 (centres undefined),inactive
2,COc1cc(OC)c(NC(=O)Cn2c(=O)nc(-c3ccccc3)c3ccccc32)cc1Cl,"inconclusive: 89.1 µM [inhibitor, single point]"
3,CCCCNc1nc2c(c(=O)n(Cc3ccc(Br)cc3)c(=O)n2C)n1C,"inconclusive: 56.2 µM [inhibitor, partial curve, poor fit]"
4,CCn1cc2nc(SCc3c(F)cccc3Cl)n(CCc3ccccc3)c(=O)c2n1,"inconclusive: 20 µM [inhibitor, full curve, poor fit]"
5,O=C(CSc1c2c(nc3ccc(Cl)cc13)CCCC2)N1CCN(c2ccc(Cl)cc2)CC1,"inconclusive: 22.4 µM [inhibitor, partial curve, poor fit]"
6,O=C(Nc1ccccc1)c1cc2c(-c3ccccc3)nn(-c3ccccc3)c2s1,"inconclusive: 7.94 µM [inhibitor, full curve, poor fit]"
7,Cc1cccc(C(=O)Nc2nnc(S(=O)(=O)N3CCOCC3)s2)c1,inactive
8,COc1ccc(Cn2nc3n(c2=O)-c2ccccc2OC3)cc1,"inconclusive: 63.1 µM [inhibitor, partial curve, poor fit]"
9,Cc1cc(-c2ccccc2)nc2cc(C(=O)Nc3ccc(Cl)c(Cl)c3)nn12,"inconclusive: 20 µM [inhibitor, full curve, poor fit]"
10,CC(C)c1cnc2c(c1SCC(=O)c1ccc(Cl)cc1)c(=O)n(C)c(=O)n2C,"inconclusive: 50.1 µM [inhibitor, partial curve, poor fit]"
11,COc1ccc2ncc3c(-c4ccccc4)nn(-c4ccc(C)c(C)c4)c3c2c1,"inconclusive: 89.1 µM [inhibitor, single point]"
12,CCOC(=O)c1c(Nc2ccc(OCC)cc2)nnc(-c2ccccc2)c1-c1ccccc1,"inconclusive: 89.1 µM [inhibitor, single point]"
13,CCSc1nnc(-c2nn(C)c3c2CN(S(=O)(=O)c2ccc(C(C)=O)cc2)CC3)n1CC,"inconclusive: 89.1 µM [inhibitor, partial curve, poor fit]"
14,CC(=O)N1c2ccc(S(=O)(=O)NCC3CCC(C(=O)Nc4cccc(F)c4)CC3)cc2CC1C (centres undefined),inactive
15,CCOC(=O)c1cc(-c2ccc(OC)cc2)n(CCC(=O)NC2CCC(C)CC2)c1C (centres undefined),"inconclusive: 79.4 µM [inhibitor, partial curve, poor fit]"
16,Cc1ccc(N(CC(=O)N2CCC(C(N)=O)CC2)S(=O)(=O)c2ccc(Cl)cc2)cc1C,inactive
17,Cc1[nH]c2ccccc2c1C1(O)C(=O)N(Cc2ccccc2)c2ccc(Br)cc21 (centres undefined),"inconclusive: 3.98 µM [inhibitor, full curve, poor fit]"
18,COc1ccccc1CNc1ncnc2onc(-c3ccc(Cl)cc3)c12,inactive
19,Cc1ccc2nc(-c3ccc(N4CCOCC4)cc3)c(Nc3ccccc3C)n2c1,"inconclusive: 15.8 µM [inhibitor, full curve, poor fit]"
20,Cc1nnc(SCC(=O)NCc2cccc(F)c2)c2nn(-c3ccccc3)c(C)c12,"inconclusive: 56.2 µM [inhibitor, partial curve, poor fit]"
